Results from the supplement of paper PMC6531468.
This is one part of the list. Values come from read counts of a selection and are noisy. Scores sum up all selected molecules that hold the word; the word was not tested alone.

Legend:
Test in all cases: 6-mer SELEX enrichment z-score vs GST control; IMP3 is the RNA-binding protein IGF2BP3; higher = more enriched by binding
IMP3 KH1-4 = conditions: construct: KH1-4 (164-579); SELEX round: R4
Experimental: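 SELEX-seq with GST-tagged IMP3 KH1-4 (Pro164-Lys579) and an N40 RNA pool, round 4. 6-mer z-score of sequence-tag enrichment normalised to the corresponding GST SELEX round; RNA k-mers written as DNA (T for U).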

IMP3 RRM1-2 = conditions: construct: RRM1-2 (1-163); SELEX round: R2
Experimental: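 SELEX-seq with GST-tagged IMP3 RRM1-2 (Met1-Asn163) and an N40 RNA pool, round 2. 6-mer enrichment z-score normalised to GST SELEX. RNA written as DNA (T = U).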

IMP3 full-length = IMP3 full-length (UniProt O00425); conditions: construct: FL IMP3 (1-579); SELEX round: R4
Experimental: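 SELEX-seq with GST-tagged full-length IMP3 and an N40 RNA pool, round 4. Each 6-mer is scored as an enrichment z-score of sequence tags containing it, normalised to the matching GST SELEX round. RNA written as DNA (T = U).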

IMP3 KH1-2 = conditions: construct: KH1-2 (164-376); SELEX round: R4
Experimental: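 SELEX-seq with GST-tagged IMP3 KH1-2 (Pro164-Phe376) and an N40 RNA pool, round 4 (stringent 300/600 mM KCl washes). 6-mer z-score of sequence-tag enrichment normalised to the corresponding GST SELEX round; RNA k-mers written as DNA (T for U).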

IMP3 KH3-4 = conditions: construct: KH3-4 (377-579); SELEX round: R4
Experimental: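 SELEX-seq with GST-tagged IMP3 KH3-4 (Pro377-Lys579) and an N40 RNA pool, round 4. 6-mer z-score of sequence-tag enrichment normalised to the corresponding GST SELEX round; RNA k-mers written as DNA (T for U).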

IMP3 RRM1-2, sequence (chain, as listed by the source): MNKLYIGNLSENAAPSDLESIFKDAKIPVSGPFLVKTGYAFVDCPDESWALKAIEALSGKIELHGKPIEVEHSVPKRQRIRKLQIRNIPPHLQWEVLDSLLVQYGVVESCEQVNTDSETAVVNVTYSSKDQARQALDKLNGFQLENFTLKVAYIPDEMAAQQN
IMP3 KH3-4, sequence (chain, as listed by the source): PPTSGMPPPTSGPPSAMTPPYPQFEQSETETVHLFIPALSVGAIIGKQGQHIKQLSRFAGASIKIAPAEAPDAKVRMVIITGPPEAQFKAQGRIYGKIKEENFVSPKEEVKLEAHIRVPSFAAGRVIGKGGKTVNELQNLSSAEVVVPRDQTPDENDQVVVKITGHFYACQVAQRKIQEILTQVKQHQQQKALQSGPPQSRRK
IMP3 KH1-2, sequence (chain, as listed by the source): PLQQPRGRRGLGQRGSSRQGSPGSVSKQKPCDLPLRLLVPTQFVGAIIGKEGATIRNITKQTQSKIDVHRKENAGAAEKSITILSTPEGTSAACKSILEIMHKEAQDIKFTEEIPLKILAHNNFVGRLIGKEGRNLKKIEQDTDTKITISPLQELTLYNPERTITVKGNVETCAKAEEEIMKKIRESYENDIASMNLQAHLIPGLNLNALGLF
IMP3 KH1-4, sequence (chain, as listed by the source): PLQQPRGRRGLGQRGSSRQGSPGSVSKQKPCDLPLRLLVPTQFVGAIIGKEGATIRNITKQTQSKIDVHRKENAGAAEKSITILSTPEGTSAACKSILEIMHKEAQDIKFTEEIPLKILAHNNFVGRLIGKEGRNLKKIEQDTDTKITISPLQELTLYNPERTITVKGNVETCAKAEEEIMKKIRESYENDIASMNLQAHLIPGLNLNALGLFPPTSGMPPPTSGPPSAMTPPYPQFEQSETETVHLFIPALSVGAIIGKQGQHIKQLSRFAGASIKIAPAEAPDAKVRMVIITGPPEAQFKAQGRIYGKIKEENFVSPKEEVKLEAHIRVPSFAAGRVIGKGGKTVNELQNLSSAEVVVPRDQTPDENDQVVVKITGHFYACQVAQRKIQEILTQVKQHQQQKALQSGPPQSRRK
UniProt O00425, sequence (O00425 whole entry): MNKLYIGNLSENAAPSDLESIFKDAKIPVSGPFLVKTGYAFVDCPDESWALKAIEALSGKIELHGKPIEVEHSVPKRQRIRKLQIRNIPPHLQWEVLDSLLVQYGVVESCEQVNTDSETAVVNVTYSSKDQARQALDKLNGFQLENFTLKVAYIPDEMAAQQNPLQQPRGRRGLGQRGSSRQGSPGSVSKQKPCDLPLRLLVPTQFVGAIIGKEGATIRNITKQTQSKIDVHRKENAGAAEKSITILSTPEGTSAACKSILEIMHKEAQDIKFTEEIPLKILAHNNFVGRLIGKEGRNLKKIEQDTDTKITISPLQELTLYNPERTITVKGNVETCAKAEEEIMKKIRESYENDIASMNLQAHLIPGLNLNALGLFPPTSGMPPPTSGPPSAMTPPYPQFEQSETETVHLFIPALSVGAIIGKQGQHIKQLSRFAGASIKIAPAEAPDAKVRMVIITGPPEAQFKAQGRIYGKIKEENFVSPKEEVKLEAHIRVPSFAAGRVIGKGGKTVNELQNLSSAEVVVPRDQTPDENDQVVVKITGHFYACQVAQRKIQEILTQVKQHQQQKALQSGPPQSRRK

Row | Sequence | 6-mer SELEX enrichment z-score (IMP3 KH1-4) | 6-mer SELEX enrichment z-score (IMP3 RRM1-2) | 6-mer SELEX enrichment z-score (IMP3 full-length) | 6-mer SELEX enrichment z-score (IMP3 KH1-2) | 6-mer SELEX enrichment z-score (IMP3 KH3-4)
1 | CCGTGC | -0.783 | -0.15 | -0.18 | -0.727 | -1.04
2 | ATTGAA | 0.978 | -0.842 | -0.371 | 0.606 | 1.75
3 | GCCATA | 0.99 | 0.069 | 0.62 | 0.942 | 0.915
4 | TCATAT | 1.7 | 1.43 | 1.41 | 1.66 | 1.81
5 | AGGCAA | 1.05 | 0.432 | 1.17 | 0.528 | 1.36
6 | ATAAAA | 0.955 | -1.81 | -0.936 | 1.4 | 2.9
7 | GAGGGT | -0.011 | 0.064 | 0.118 | 0.187 | 0.195
8 | AATCGG | -0.148 | -0.252 | 0.078 | -0.444 | -0.211
9 | CCCGCG | -1.81 | -0.448 | -0.583 | -1.41 | -1.8
10 | TGCCCA | -1.95 | -0.449 | -1.5 | -1.75 | -2.19
11 | ACTGAC | -0.073 | -0.677 | -0.846 | 0.001 | -0.44
12 | GGTATA | 0.055 | 0.108 | 0.017 | 0.081 | 0.346
13 | TCTATT | 0.968 | 0.484 | 0.325 | 0.879 | 1.1
14 | CGTGCA | 0.114 | 0.137 | 0.532 | 0 | -0.134
15 | ACAAGT | 0.182 | 0.384 | 0.189 | -0.063 | 0.119
16 | ATCTCT | 0.258 | 0.352 | 0.085 | 0.216 | 0.153
17 | AATAGG | 1.06 | -0.223 | 0.243 | 0.75 | 1.39
18 | TACCTC | -0.912 | -0.096 | -0.703 | -0.794 | -1.03
19 | ACACTG | 1.2 | 0.731 | 1.01 | 1.28 | 0.498
20 | ACGGTC | 0.226 | -0.052 | 0.408 | -0.098 | -0.205

Row | Sequence | 6-mer SELEX enrichment z-score (IMP3 KH1-4) | 6-mer SELEX enrichment z-score (IMP3 RRM1-2) | 6-mer SELEX enrichment z-score (IMP3 full-length) | 6-mer SELEX enrichment z-score (IMP3 KH1-2) | 6-mer SELEX enrichment z-score (IMP3 KH3-4)
21 | AGTTCT | 0.05 | 0.333 | 0.044 | 0.032 | 0.135
22 | GCAGAT | 0.372 | 0.222 | 0.518 | 0.285 | 0.398
23 | TCTTTC | 0.749 | 0.59 | 0.402 | 0.68 | 0.513
24 | GCGGTT | -0.132 | 0.353 | 0.148 | -0.018 | 0.145
25 | TGGCAA | 0.635 | 0.223 | 0.639 | 0.37 | 0.688
26 | TAGCTC | -0.097 | 0.304 | 0.047 | -0.06 | -0.02
27 | AGCGGC | 1.58 | 0.142 | 2.14 | 1.12 | 1.7
28 | TTAGGT | 0.227 | 0.454 | 0.23 | 0.278 | 0.476
29 | CGCCAG | -0.023 | -0.22 | 0.482 | 0.05 | -0.342
30 | TCGCGG | -0.21 | 0.208 | 0.3 | -0.114 | -0.121
31 | CGCGCA | 0.12 | 0.23 | 0.965 | 0.052 | -0.139
32 | GCACGT | 0.254 | 0.304 | 0.744 | 0.1 | -0.021
33 | TACTTC | 0.394 | 0.329 | 0.035 | 0.468 | 0.272
34 | GCACAT | 2.48 | 1.57 | 2.96 | 2.1 | 2.12
35 | CCCTAG | -0.837 | -0.348 | -0.722 | -0.81 | -0.98
36 | CAGGTA | -0.104 | 0.448 | 0.352 | -0.094 | -0.045
37 | GGATCG | -0.027 | -0.096 | 0.151 | -0.12 | 0.009
38 | GCTCCA | 0.123 | 0.206 | 0.422 | 0.113 | -0.183
39 | CTGATT | 0.57 | -0.007 | -0.111 | 0.47 | 0.5
40 | GAACCG | -1.36 | -1.57 | -1.13 | -1.11 | -1.57

Row | Sequence | 6-mer SELEX enrichment z-score (IMP3 KH1-4) | 6-mer SELEX enrichment z-score (IMP3 RRM1-2) | 6-mer SELEX enrichment z-score (IMP3 full-length) | 6-mer SELEX enrichment z-score (IMP3 KH1-2) | 6-mer SELEX enrichment z-score (IMP3 KH3-4)
41 | AACCGA | -2.73 | -2.17 | -2.19 | -2.13 | -2.61
42 | ACCTCG | -1.84 | -0.279 | -0.919 | -1.65 | -1.8
43 | CGTGGG | -0.648 | 0.186 | -0.2 | -0.432 | -0.438
44 | ATAACT | 1.39 | -0.225 | -0.041 | 1.58 | 1.77
45 | CGTTTT | -0.352 | 0.204 | -0.202 | -0.256 | -0.157
46 | ATCAGT | 0.819 | 1.15 | 1.22 | 0.557 | 0.53
47 | GTAAGG | 0.426 | -0.151 | 0.062 | 0.24 | 0.469
48 | GGACGA | -0.38 | -1.13 | -0.34 | -0.419 | -0.393
49 | AGGGTA | -0.209 | 0.13 | 0.009 | -0.084 | 0.069
50 | TCTAGT | 0.069 | 0.398 | 0.066 | 0.048 | 0.121
51 | AAAGGT | -0.409 | -0.75 | -0.528 | -0.483 | -0.057
52 | AACGGC | 1.16 | -0.356 | 1.63 | 0.531 | 1.04
53 | CTGTAA | 0.272 | -0.478 | -0.337 | 0.263 | 0.288
54 | ATGCCG | -0.15 | -0.472 | -0.249 | -0.183 | -0.436
55 | CGCTGT | -0.091 | 0.065 | 0.075 | 0.077 | -0.083
56 | TAGATT | 0.686 | 0.025 | -0.022 | 0.547 | 1.02
57 | CCAAAG | -1.89 | -1.43 | -1.72 | -1.85 | -1.94
58 | CTTGCG | -1.12 | 0.173 | -0.617 | -0.964 | -0.864
59 | CCCATG | -0.531 | -0.575 | -0.601 | -0.533 | -0.939
60 | ATCCCG | -1.05 | -0.58 | -0.498 | -0.879 | -1.34
